Our source for the self-cleavage values is the RNAGym collection of RNA variant scans (doi:10.1093/nar/gkz1192).

To fix the notation:
B1: CPEB3 Ribozyme (parent)
chain: UAACAGGGGGCCACAGCAGAAGCGUUCACGUCGCAGCCCCUGUCAGAUUCUGGUGAAUCUGCGAAUUCUGCUGUAUAUCUC

The source gives no read counts; variants with many changes may rest on few reads.

Variants of B1 are the subject of this data set. As to the kind of experiment: self-cleavage, relative activity (ratio to wild type); higher = more cleavage; in vitro, sequencing. The method in brief:
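Relative activity was defined as the cleaved/total read fraction for a variant divided by the same fraction for the unmutated ribozyme. CPEB3 self-cleaving ribozyme libraries were made by rounds of error-prone PCR, barcoded, and transcribed in vitro with T7 RNA polymerase for 5 hours at 37°C, and cleavage ran through transcription plus a 15 min DNase I step before EDTA. Illumina sequencing of template-switched reverse transcripts gave the reads, and DNA sequencing mapped the barcodes. Averages come from three batches, using variants with at least 5 reads.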
For UAACAGGGGGCCACAGCAGAAGCGUUCACGUCGCAGCCCCUGUCAGAUUCCCGUGAAUCUGCGAAUCCUGCCGUAUAUCUC [U51C G52C U67C U72C], the self-cleavage came to 0.64.
In the case of UAACAGGGGGCCACAGCAGAAGCGUUCACGUCGCAGCCCCUGUCAGAUUCUGGAGAACCUGCGAAUUCUGCUGUAUACCUC [U54A U58C U78C] it was 0.25.
Turning to UAACAGGGGGCCACAGCAGAAGCGUUCACGUCGCAGCCCCUGUCAGAUUCCGGUGAAUCUGCAAAUUCUGCUGUACAUCUC [U51C G63A U76C], the self-cleavage worked out at 0.87.
In the case of UAACAGGGGGCCACAGCAGAAGCGUUCACGUCGCAGCCCCUGUCAGAUUCCGGUGAAUGUGCGAACUCUGCUGUUUAUCUC [U51C C59G U66C A75U] it was 0.15; in that of UAACAGGGGGCCACAGCAGAAGCGUUCACGUCGCAGCCCCUGUCAGAUUCAGGUGAAUCCGCGAAUUCUGCUGUAUAUCCC [U51A U60C U80C], 0.58; in that of UAACAGGGGGCCACAGCAGAAGCGUUCACGUCGCAGCCCCUGUCAGAUUCUGGCGAAUCUGCGAAUUCUGGUGUUUAUCUU [U54C C71G A75U C81U], 0.58.
For the variant UAACAGGGGGCCACAGCAGAAGCGUUCACGUCGCAGCCCCUGUCAGAUUCUGGCGAAUCUGCGGAUUCCGCUGUAUAUCUC [U54C A64G U69C], the self-cleavage is 0.34.
With UAACAGGGGGCCACAGCAGAAGCGUUCACGUCGCAGCCCCUGUCAGAUUCUGGAGAAUCAGCGGAUCCUGCUGUAUAUCUC [U54A U60A A64G U67C], the self-cleavage amounted to 0.42.
UAACAGGGGGCCACAGCAGAAGCGUUCACGUCGCAGCCCCUGUCAGAUUCUGGCGAAUCUGCGGUUUCUGCUGUAUAUCAC [U54C A64G A65U U80A]: the self-cleavage was found to be 0.14.
Consider UAACAGGGGGCCACAGCAGAAGCGUUCACGUCGCAGCCCCUGUCAGAUUCUGAUGAAUCUGCGAAUUCUGCUUUUUAUCUC [G53A G73U A75U], for which the self-cleavage is 1.28.
In the case of UAACAGGGGGCCACAGCAGAAGCGUUCACGUCGCAGCCCCUGUCAGAUUCCGGUGAAUCCGCGAAUUCUGCUGUAUAUCAC [U51C U60C U80A] it was 0.4; in that of UAACAGGGGGCCACAGCAGAAGCGUUCACGUCGCAGCCCCUGUCAGAUUCUAGUGUAUAUGCGAAUUCUGCUGUAUAUCUC [G52A A56U C59A], 0.2.
On to UAACAGGGGGCCACAGCAGAAGCGUUCACGUCGCAGCCCCUGUCAGAUUCUGGCGGAUCUGCGAAUUCUGCCGUAUAUCUC [U54C A56G U72C], for which the self-cleavage was 0.39.
On to UAACAGGGGGCCACAGCAGAAGCGUUCACGUCGCAGCCCCUGUCAGAUUCUGUUGAAUCUGCGAGUUCUGCUGUAUCUCUC [G53U A65G A77C], for which the self-cleavage came out at 0.61.
Next, UAACAGGGGGCCACAGCAGAAGCGUUCACGUCGCAGCCCCUGUCAGAUUCCGGUGAAUCUGCGAACUCUGCUGUAUAUCCC [U51C U66C U80C]: 0.56; UAACAGGGGGCCACAGCAGAAGCGUUCACGUCGCAGCCCCUGUCAGAUUCUGGCGAAUCUGCGGAUCCUGCUGUAUAUCUC [U54C A64G U67C]: 0.19.
For UAACAGGGGGCCACAGCAGAAGCGUUCACGUCGCAGCCCCUGUCAGAUUCUGGCGAAUUUGCGAAUCCUGCUGUAUAUCUC [U54C C59U U67C], the self-cleavage was 0.11.
Next, UAACAGGGGGCCACAGCAGAAGCGUUCACGUCGCAGCCCCUGUCAGAUUCUGAUGAAUCUGCGAAUCCUGCUGUAUAUCAC [G53A U67C U80A]: 0.28; UAACAGGGGGCCACAGCAGAAGCGUUCACGUCGCAGCCCCUGUCAGAUUCUGAUGAAUCUGCGAAUUCUGCCGUGUAUCUC [G53A U72C A75G]: 1.17.
Turning to UAACAGGGGGCCACAGCAGAAGCGUUCACGUCGCAGCCCCUGUCAGAUUCCGGUGGAUCUGCGAAUUCUGCUGUAUACCUC [U51C A56G U78C], the self-cleavage turned out to be 0.51.
Next, UAACAGGGGGCCACAGCAGAAGCGUUCACGUCGCAGCCCCUGUCAGAUUCUGGAGAACCUGCGAAUUCCGCUGUAUAUCUC [U54A U58C U69C]: 0.35.
Next, UAACAGGGGGCCACAGCAGAAGCGUUCACGUCGCAGCCCCUGUCAGAUUCUGCUGAAUCUGCGAAUUCUGCUGUAUACCCC [G53C U78C U80C]: 0.89.
Next, UAACAGGGGGCCACAGCAGAAGCGUUCACGUCGCAGCCCCUGUCAGAUUCCGGUGAAUCUGCGAAUUCUGCUGCAUGUCUC [U51C U74C A77G]: 1.38.
As for UAACAGGGGGCCACAGCAGAAGCGUUCACGUCGCAGCCCCUGUCAGAUUCUGGAGUGUCUGCGAUUUCUGCUGUAUAUCUC [U54A A56U A57G A65U], the self-cleavage is 0.13.
Turning to UAACAGGGGGCCACAGCAGAAGCGUUCACGUCGCAGCCCCUGUCAGAUUCGGGUGAAUCUGCGAAUUCUGCUGUAUUUCCC [U51G A77U U80C], the self-cleavage was 1.15.
Next, UAACAGGGGGCCACAGCAGAAGCGUUCACGUCGCAGCCCCUGUCAGAUUCUGGCGAAUCUGCGGAUCCUGCAGUAUAUCUC [U54C A64G U67C U72A]: 0.33.
UAACAGGGGGCCACAGCAGAAGCGUUCACGUCGCAGCCCCUGUCAGAUUCAGGUGAAUCUGCGAAUCCAGCAGCAUAUCUC [U51A U67C U69A U72A U74C]: the self-cleavage was 0.5.
In the case of UAACAGGGGGCCACAGCAGAAGCGUUCACGUCGCAGCCCCUGUCAGAUUCAGGUGAAUCUGCGAAUUCUGCUGUAUACCAC [U51A U78C U80A] it was 1.22.
Next, UAACAGGGGGCCACAGCAGAAGCGUUCACGUCGCAGCCCCUGUCAGAUUCAGGUGAAUCUGCGAAUUCCGCUGUAUAUCUA [U51A U69C C81A]: 0.98; UAACAGGGGGCCACAGCAGAAGCGUUCACGUCGCAGCCCCUGUCAGAUUCUUGGGAAUCUGCGAGUUCUGCUGUAUAUCUC [G52U U54G A65G]: 0.39.
For UAACAGGGGGCCACAGCAGAAGCGUUCACGUCGCAGCCCCUGUCAGAUUCUGCUGAAACUGCGAGUUCUGCUGUAUAUCUC [G53C U58A A65G], the self-cleavage was 0.13.
Take UAACAGGGGGCCACAGCAGAAGCGUUCACGUCGCAGCCCCUGUCAGAUUCUAGUGAACCUGCGAAUUCUGCUGCAUAUCUC [G52A U58C U74C]: the self-cleavage came out at 1.14.
UAACAGGGGGCCACAGCAGAAGCGUUCACGUCGCAGCCCCUGUCAGAUUCUAGUGAAUCUGCGAAUUCUGCCGUAUAUAUC [G52A U72C C79A]: the self-cleavage stood at 1.24.
With UAACAGGGGGCCACAGCAGAAGCGUUCACGUCGCAGCCCCUGUCAGAUUCAGGUGAAUCUGCGAAUUCUGCUGAAUAUCUU [U51A U74A C81U], the self-cleavage is 1.35.
